Assay results published in the supplement of paper PMC7335073.
Whole data set: some 4,100 sequences, median “relative CpG methylation activity (normalised to average over all NNNCGNNN flanks)” near 0.87, cut for the highest 2% near 2.4. The list shows a part of the results.

These sequences were tested against DNMT3A catalytic domain (mouse) (UniProt O88508) (assay: relative CpG methylation activity (normalised to average over all NNNCGNNN flanks) (relative (1 = mean)); higher = more methylation of the central CpG). Conditions: system: in vitro, murine catalytic domain; CpG state: hemimethylated substrate pool; residues: 608-908.
Method in brief: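 Murine DNMT3A or DNMT3B catalytic domain methylated pooled dsDNA substrates, each carrying a central CpG within 10 random flanking nucleotides, with 0.8 mM S-adenosyl-L-methionine in HEPES pH 7.5 buffer at 37 °C for 60 min. Proteinase K treatment, BsaI-HFv2 digestion, hairpin ligation, bisulfite conversion and two-step PCR preceded Illumina sequencing. Relative methylation activity is the average methylation of a flanking context divided by the mean across all contexts, where a context spans three bases on each side, and every experiment was repeated twice independently.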

Sequence | relative CpG methylation activity
GTGCGGTT | 0.635
GTACGCTA | 1.98
AGCCGCTT | 1.5
CTGCGAAG | 0.897
AGCCGAGA | 0.788
GAACGGAG | 0.444
AGTCGCCT | 1.08
CTTCGGGT | 0.82
GGCCGATA | 0.552
TGCCGCTC | 1.84
ATCCGCGT | 1.34
TTGCGTCA | 1.97
CCACGAGG | 0.518
AAACGGCG | 0.479
TTACGACT | 2.1
GTTCGGTT | 0.726
GAGCGTGC | 0.417
CACCGAAT | 0.813
AGACGCAA | 0.717
GTCCGGGC | 1.59
CTCCGAGC | 2.24
CATCGGGA | 0.259
GTCCGACA | 2.02
GGGCGTTA | 0.441
CAGCGAAC | 0.67

Sequence | relative CpG methylation activity
GTCCGTGC | 0.722
TTGCGCAC | 2.11
TGGCGCAG | 0.34
CGCCGCCT | 1.48
CATCGCCG | 1.36
GTGCGTCT | 1.71
TCGCGGAA | 0.551
TTCCGAAC | 2.22
TTGCGCTA | 1.89
ATCCGGCG | 1.45
ATACGGAT | 1.53
CGACGCGC | 0.694
AACCGGGG | 0.513
TGACGTGA | 0.475
GGGCGTGC | 0.51
TGACGGAC | 0.828
TATCGATC | 0.934
TCTCGAGG | 0.357
ACGCGTCG | 1.45
AAACGACA | 0.765
GCTCGGTA | 0.795
TACCGCTT | 1.23
GGCCGTCG | 0.932
TGTCGGTA | 0.389
CCTCGATA | 0.911

Sequence | relative CpG methylation activity
AACCGTTT | 0.905
CTTCGAAT | 0.595
GCTCGTTC | 1.14
CCCCGATT | 0.939
CAGCGTCT | 0.766
TTGCGGAC | 1.29
GCTCGCTC | 1.7
CGCCGCGA | 0.565
AACCGACT | 0.927
GAACGTGC | 0.464
GGTCGAGC | 0.685
CGACGTAC | 0.566
GTGCGAGT | 1.39
AACCGGTA | 0.714
TCTCGGAG | 0.328
CATCGGCC | 1.1
GGGCGGAA | 0.779
CTGCGCCC | 2.19
GCACGTGG | 0.388
ATTCGTTT | 1.14
ACTCGGCC | 1.4
CCACGAAA | 1.39
ACGCGTTC | 1.19
GAGCGATG | 0.318
AAGCGATA | 0.458

Sequence | relative CpG methylation activity
ATACGCAC | 2.34
TAGCGCCT | 1.02
CCACGACC | 1.68
TGGCGAAT | 0.403
AAGCGCCA | 1.04
CTTCGATT | 1.04
TTACGTGG | 0.437
ACGCGCGT | 1.07
ACTCGCAG | 0.671
AGGCGATG | 0.342
CCACGGTT | 1.05
GCTCGGCA | 1.1
AATCGTTT | 0.27
ATCCGGAC | 1.36
TGTCGGGT | 0.615
TTCCGCAC | 2.18
GATCGAAA | 0.43
CTCCGCTA | 2.27
GTACGAAT | 1.36
GCCCGGGT | 0.974
GCCCGATG | 0.508
TTACGAAC | 2.17
TGGCGTAG | 0.38
CATCGCGC | 0.69
CTGCGTCT | 1.56

Sequence | relative CpG methylation activity
TTACGTTG | 1.34
CAACGTAG | 0.467
ATACGACG | 1.73
TTCCGTGA | 1.14
GTCCGAAA | 1.72
GAACGGAA | 0.566
ATTCGCAC | 1.2
GTTCGAAC | 1.37
GGTCGTAT | 0.455
AGTCGAAG | 0.145
CTACGGGA | 1.38
ACGCGCCT | 2.02
GTGCGGGA | 1.07
AAGCGGTG | 0.221
TATCGTGG | 0.0549
GTACGTGT | 0.804
GCCCGTGT | 0.304
GCCCGTGA | 0.592
GTCCGAGA | 1.64
ACGCGCAG | 0.605
CTGCGTGT | 0.598
GCACGTCA | 1.86
AGCCGGCA | 0.812
ACGCGTGC | 0.46
AAGCGCCT | 1

Sequence | relative CpG methylation activity
AACCGCGG | 0.225
GAACGTGT | 0.152
TAACGCCT | 1.2
ATTCGCAG | 0.559
GGCCGGGG | 0.156
GGCCGGAC | 0.667
GTGCGCGT | 1.48
CGTCGCCA | 1.32
CCGCGGTT | 0.865
ACACGTTC | 2.03
ACTCGCCC | 1.86
TCACGGCC | 1.59
ATCCGATA | 1.7
ATGCGCGA | 1.17
TAACGGCC | 1.2
CCTCGGAT | 0.744
CATCGGTG | 0.467
GGTCGGCG | 0.341
GGTCGTAA | 0.82
CGTCGACT | 0.696
TGGCGCAT | 0.413
GGCCGCGT | 0.263
CGGCGACC | 0.275
TCACGACC | 1.45
ACGCGCTC | 1.83

Sequence | relative CpG methylation activity
CGACGGGT | 0.422
AAGCGCGT | 0.408
GGCCGACG | 1.06
ATTCGGAT | 0.53
CATCGTGA | 0.446
AATCGGTT | 0.205
TAGCGACC | 0.612
AGACGCTA | 0.996
ACCCGCTC | 1.88
TGGCGGTT | 0.673
CACCGCTG | 0.798
GCACGGCT | 1.48
CCCCGATG | 0.707
ATGCGGCG | 0.6
AATCGCCC | 1.37
CCGCGACA | 1.1
GCACGAAG | 0.983
TGTCGACC | 0.76
AGTCGCCG | 1.17
GGCCGTGG | 0.192
GGACGGCC | 1.01
CACCGGAG | 0.153
AAACGGTG | 0.476
TCTCGCAT | 1.22
ATTCGCGG | 0.183

Sequence | relative CpG methylation activity
GCGCGGCT | 1.25
CATCGTTC | 0.912
AGCCGCAC | 0.983
TTTCGGCG | 0.857
TAGCGTAA | 0.606
TTTCGGGA | 0.882
GAACGTAC | 0.722
TTCCGACA | 2.36
CAGCGACT | 0.576
CCACGGCC | 1.76
GAGCGTTG | 0.26
GGACGTGA | 0.354
GGCCGATG | 0.302
GTCCGGTC | 1.96
TTACGTAT | 1.48
TAGCGTTT | 0.45
CAGCGAGA | 0.503
CCACGTAC | 1.45
TCTCGGCG | 0.688
GAACGGAC | 1.07
CTCCGGTG | 1.08
CTACGCAC | 2.15
AGCCGGGG | 0.593
GTTCGCAG | 0.727
GAGCGGGC | 0.517

Sequence | relative CpG methylation activity
TACCGGAA | 0.592
TCACGTGA | 0.802
GTTCGTAT | 0.505
CGCCGAAT | 0.61
TTTCGTTA | 1.28
TGCCGCAC | 1.07
CCACGTCG | 1.7
TCGCGATG | 0.614
AGGCGAGA | 0.545
CTACGATT | 1.89
GCTCGTCC | 1.85
GGGCGTCT | 1.3
ATACGGCT | 1.74
ATCCGGCC | 1.49
CAACGCCA | 1.14
ATACGAGC | 2.39
AGCCGCCG | 0.986
TATCGCAT | 0.632
AGCCGAGG | 0.227
